Measurements published in PubChem BioAssay AID1347073 (National Center for Advancing Translational Sciences (NCATS), 2019).
Hit rate of the full screen: of about 45,000 compounds, about 200 (0.44%) were called active. Roughly 7% stayed inconclusive and do not appear here. The call rests on the fitted dose curve; in most records, active means well fitted activation curve with a large enough effect; inconclusive means small, poorly fitted or top-dose-only effect; inactive means no such curve, though single readings can be large or run the other way. Some of the results follow.

Assay: qHTS of TDP-43 Inhibitors: NCGC Sytravon Library Screen; further: 0% is about no effect; nearly all actives have a fitted effect of over 55% in size
Conditions: yeast TDP-43 toxicity rescue, BacTiter-Glo growth, 24 h; series mostly up to 46.1 µM; growth rescue (activation): at the top concentration
Procedure, shortened: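 TDP-43-expressing yeast, pregrown in raffinose, seeded at OD600 0.02 in galactose medium with compound for 24 hr at 30 deg C. Growth read by BacTiter-Glo luminescence, so rescue of toxicity appears as activation.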

| Structure (SMILES) | growth rescue (activation) |
| --- | --- |
| COc1ccc(CCNC(=O)c2sc3ccccc3c2Cl)cc1OC | inactive: 24.5% |
| Cc1ccc(NC(=O)Nc2nnc(Cc3ccc([N+](=O)[O-])cc3)s2)cc1C | inactive: 12.1% |
| CCOC(=O)C(=O)N(C)c1c(CC)nc2c(OCc3cccc(Cl)c3)cccn12 | inactive: 9.34% |
| COc1cc(/C=N/NC(=O)c2ccncc2)ccc1OC(=O)c1ccco1 | inactive: 4.54% |
| O=C(O)C1=C(C(=O)Nc2cc(C(F)(F)F)ccc2Cl)CCCC1 | inactive: 27% |
| CCN(Cc1ccncc1)C(=O)c1cc(Br)cc(Br)c1O | inactive: -9.53% |
| CC(C)Oc1cc(F)ccc1-c1cc(C(=O)NCCc2ccncc2)[nH]n1 | inactive: 7.03% |
| COC(=O)C1=C(C)N(Cc2ccc(OC)cc2)C(=O)/C1=C\c1ccco1 | inactive: 7.47% |
| NC(=O)COC(=O)c1ccc(NS(=O)(=O)c2ccc3c(c2)OCCO3)cc1 | inactive: 10.9% |
| COc1ccc(-n2c(COc3ccc(C)cc3)nnc2SCC(=O)O)cc1 | inactive: 6.11% |
| CC(C)N1CCC(N2CCN(Cc3ccc(C#CC(C)(C)O)s3)CC2CCO)CC1 (stereo unspecified) | inactive: 2.11% |
| Cn1cc(C(=O)c2cccc(Cl)c2)cc1/C=N\O | inactive: -0.434% |
| NS(=O)(=O)c1cccc(NS(=O)(=O)c2ccc(/C=C/C(=O)OCC(=O)c3ccccc3)cc2)c1 | inactive: 5.37% |
| Cc1cccc(-n2cc(C(=O)O)c(=O)cc2C)c1 | inactive: 3.53% |
| Cc1ccc(CNC(=O)C2CCC(=O)N2C(C)C)cc1 (stereo unspecified) | inactive: 13.3% |
| c1ccc(NCc2nc3ccccc3n2CCOc2ccccc2)cc1 | inactive: 14.5% |
| COc1ccc(CCNC(=O)Nc2nnc([C@H]3C[C@H](O)[C@@H](CO)O3)s2)cc1OC | inactive: -8.07% |
| CCc1ccc(S(=O)(=O)Nc2ccc(Br)cn2)cc1 | inactive: 9.69% |
| CCc1ccc(NC(=S)NC2CC3CCCC(C2)N3Cc2ccccc2)cc1 (stereo unspecified) | inactive: -4.57% |
| CCC(=O)N1CCCN(S(=O)(=O)c2ccc(C)cc2)C1c1ccc(OC)cc1 (stereo unspecified) | inactive: 0.0018% |
| COCCn1cnc2c1c(=O)n(CC(=O)NCC(F)(F)F)c(=O)n2Cc1ccccc1 | inactive: 1.22% |
| COc1cc2c(cc1OC)C(c1cccs1)N(C(=O)c1cccnc1)CC2 (stereo unspecified) | inactive: 14.8% |

| Structure (SMILES) | growth rescue (activation) |
| --- | --- |
| CC(C)(C)c1ccc(CC(=O)N2CCC2(C)C(=O)NS(=O)(=O)c2ccc3c(c2)CCO3)cc1 (stereo unspecified) | inactive: 13.5% |
| Cc1cc(NC(=O)C(C)C)ncc1NC(=O)CCc1ccccc1 | inactive: 33.7% |
| O=C1CCC(C(=O)NCc2ccccc2)N1 (stereo unspecified) | inactive: 7.69% |
| COc1ccccc1N1N=C(c2ccc([N+](=O)[O-])cc2)CC1c1ccccc1 (stereo unspecified) | inactive: 4.79% |
| CCOc1ccc2cc(C3CC(c4ccco4)=NN3S(C)(=O)=O)c(Cl)nc2c1 (stereo unspecified) | inactive: 22.1% |
| COc1ccccc1-c1cnc(C(O)c2cc(C)ccc2C)[nH]1 (stereo unspecified) | inactive: 8.02% |
| O=S(=O)(c1cc(Cl)ccc1Cl)N1CCN2CCCC2C1 (stereo unspecified) | inactive: -1.74% |
| CSCC[C@H](NC(=O)NCCC1=CCCCC1)C(=O)O | inactive: 12.4% |
| O=C(Cn1cc(C(F)(F)F)ccc1=O)Nc1cccc(S(=O)(=O)N2CCOCC2)c1 | inactive: 1.11% |
| COc1ccc(OC)c(-n2c(=S)[nH]c3c(sc(=S)n3-c3ccccc3)c2=O)c1 | inactive: -6.46% |
| O=C(Nc1ccnn1C1CCNCC1)c1ccc2c(c1)OCO2 | inactive: -7.21% |
| COc1ccccc1-c1ocnc1C(=O)N1CCN(C(=O)C(c2ccccc2)c2ccccc2)CC1 | inactive: -4.31% |
| COC(=O)C1CCN(C(=O)CN2C(=O)NC3(CCC(C)CC3)C2=O)CC1 (stereo unspecified) | inactive: -2.01% |
| O=C(NCC1(O)CCCCC1)C1CCC(=O)N(CCc2ccccc2)C1 (stereo unspecified) | inactive: -8% |
| COC(=O)/C=C1\SC(=NC(=O)c2ccc(OC)cc2)NC1=O | inactive: -0.504% |
| Cc1nn(Cc2ccccc2)c2c1C(c1cccc(Cl)c1)C(C#N)=C(N)O2 (stereo unspecified) | inactive: 4.67% |
| Cc1ccc(OCC(=O)NCCNC(=O)c2ccco2)cc1C | inactive: 1.47% |
| Cc1cc(C)cc(C(O)c2ncc(-c3ccccc3C(F)(F)F)[nH]2)c1 (stereo unspecified) | inactive: 10.5% |
| CN(NC(=O)c1ccccc1F)c1nc(C(F)(F)F)nc2ccccc12 | inactive: 15.1% |
| CCOc1ccccc1C(=O)Nc1c[nH]c(=O)[nH]c1=O | inactive: 15.7% |
| CN1/C(=C\C(=O)C(F)F)C(C)(C)c2ccccc21 | inactive: 12% |
| CCC(=O)NC(c1ccc(C)cc1)c1ccc2cccnc2c1O (stereo unspecified) | inactive: 9.92% |

| Structure (SMILES) | growth rescue (activation) |
| --- | --- |
| NS(=O)(=O)c1ccc(N=Nc2c(O)[nH]c3ccc(Br)cc23)cc1 | inactive: -4.76% |
| Nc1cc(-c2ccc(Cl)cc2)nn1-c1ccccc1 | inactive: 16% |
| O=C(CN1C(=O)c2ccccc2C1=O)NC1CCCCCC1 | inactive: -9.81% |
| O=C(Cc1cnc2ncnn2c1)N1CCc2c([nH]c3ccccc23)C1c1ccccn1 (stereo unspecified) | inactive: 0.129% |
| CC(CCc1ccccc1)NC(=O)COC(=O)c1ccc([N+](=O)[O-])cc1 (stereo unspecified) | inactive: 4.19% |
| O=C(COC(=O)/C=C/c1ccc(F)cc1)Nc1cc(C(F)(F)F)ccc1N1CCOCC1 | inactive: 10.2% |
| COC(=O)c1ccccc1NC(=O)NCCc1ccccc1OC | inactive: 15.1% |
| O=C(CSc1ccc(Cl)cc1)Nc1cccc(-c2nnc(-c3ccco3)o2)c1 | inactive: 19.6% |
| CN1CCN(c2ccc(NC(=O)c3ccc(-c4ccc(Br)cc4)o3)cc2)CC1 | inactive: -0.364% |
| COc1cc2c(cc1OC)CN(C(=O)c1ccc(S(=O)(=O)N(C)c3ccccc3)cc1)CC2 | inactive: 5.78% |
| CO/N=C(\N)c1nonc1N | inactive: 6.54% |
| C=CCN(c1ccccc1)S(=O)(=O)c1cc(C(=O)NC2=NCCS2)ccc1Cl | inactive: -7.06% |
| O=C(CNC(=O)c1ccco1)N/N=C/c1ccc(O)c([N+](=O)[O-])c1 | inactive: -7.28% |
| COc1ccc(C(=O)COC(=O)c2ccccc2NS(=O)(=O)c2ccc(O)c([N+](=O)[O-])c2)cc1 | inactive: 10% |
| CN(CC(=O)Nc1ccc(Cl)c(C(F)(F)F)c1)C(=O)c1cnccn1 | inactive: -6.84% |
| CCn1c(=O)cc(SCC(=O)NCCCN2CCC(C)CC2)c2ccccc21 | inactive: 5.09% |
| Cc1ccnc(N2CCC(C(=O)NNC(=O)c3ccncc3)CC2)n1 | inactive: -7.7% |
| Cc1nn(-c2ccc(F)cc2)c(C)c1CN1CCN(Cc2ccccc2)C(CCO)C1 (stereo unspecified) | inactive: -6.06% |
| COc1ccc(C(C)(NC(C)=O)c2nc(-c3ccc(S(C)(=O)=O)cc3)cs2)cc1 (stereo unspecified) | inactive: 12.5% |
| O=C(N/N=C\c1ccc(-c2ccc(Cl)c(Cl)c2)o1)C(=O)N1CCCC1 | inactive: 8.2% |
| O=C(NCc1ccc2c(c1)OCO2)C1CCCN1C(=O)Nc1ccc(Cl)cc1 (stereo unspecified) | inactive: 5.3% |
| O=C(NCCCNc1ccc([N+](=O)[O-])cc1)C(F)(F)F | inactive: 17.4% |

| Structure (SMILES) | growth rescue (activation) |
| --- | --- |
| COc1ccc2c(c1)CCc1sc(NC(=O)c3ccc(C)cc3)nc1-2 | inactive: -12.2% |
| COc1cccc(OC)c1C(=O)OCC(=O)N1CCC(Cc2ccccc2)CC1 | inactive: -7.12% |
| COc1ccc(CC(=O)Nc2ccc(N3CCCC3)c(C)c2)cc1 | inactive: 5.49% |
| CS(=O)(=O)N1CCN(c2ccc(Cl)cc2[N+](=O)[O-])CC1 | inactive: 20.1% |
| CN(C)C=NC(=O)c1ccc(N2CCN(c3ncc(C(F)(F)F)cc3Cl)CC2)cc1 | inactive: -15.6% |
| CC(=O)Nc1ccc(NC(=O)CCCCCn2nnc3ccccc3c2=O)cc1 | inactive: -11.3% |
| O=S(=O)(NCc1ccccc1F)c1cccc(S(=O)(=O)N2CCOCC2)c1 | inactive: 2.88% |
| CC1(C)Cc2c(cnn2-c2ccccc2)C(NC(=O)CCc2ccc(=O)[nH]n2)C1 (stereo unspecified) | inactive: 18.7% |
| O=C(COC(=O)c1cc(S(=O)(=O)N2CCOCC2)ccc1F)Nc1cc([N+](=O)[O-])ccc1F | inactive: 32% |
| CCCCCCCCC/C(=N\O)c1ccccn1 | inactive: -92.1% |
| CC1CCCC(C)N1C(=O)COC(=O)/C=C/c1ccco1 (stereo unspecified) | inactive: 20.2% |
| O=C(CCCN1C(=O)S/C(=C\C=C\c2ccccc2)C1=O)Nc1ccc(C(=O)O)cc1 | inactive: 12.1% |
| COc1ccc(CCNc2nc(C)cc(C)n2)cc1OC | inactive: 8.85% |
| C/C(CC(=O)Nc1ccc(N(C)C)cc1)=N\NC(=O)Cc1csc(N)n1 | inactive: 6.16% |
| COC(=O)N/N=C/c1ccc(-c2ccc(Cl)cc2Cl)o1 | inactive: 8.11% |
| CCCN1C/C(=C/c2ccc3c(c2)OCO3)C(=O)/C(=C/c2ccc3c(c2)OCO3)C1 | inactive: -13.6% |
| O=C(Oc1cccc2cccnc12)c1cccc([N+](=O)[O-])c1 | inactive: -19.2% |
| COc1ccc(OC(=O)c2ccc(Cl)cc2)c(C(C)=O)c1 | inactive: 4.62% |
| O=C(O)C1CC(=O)N(c2ccc(OCc3c(F)cccc3Cl)cc2)C1 (stereo unspecified) | inactive: 2.25% |
| CC(C)C(=O)Nc1c2c(nn1-c1ccc(F)cc1)CS(=O)(=O)C2 | inactive: -15.5% |
| COC(=O)c1ccccc1C(=O)N1CCCC(CCC(=O)NCc2ccc(F)c(F)c2)C1 (stereo unspecified) | inactive: 7.05% |
| Cc1ccc(/C=N/NC(=O)c2ccoc2C)o1 | inactive: 8.32% |

| Structure (SMILES) | growth rescue (activation) |
| --- | --- |
| O=[N+]([O-])c1cccc(-c2ccc(C(=S)N3CCOCC3)o2)c1 | inactive: 19.8% |
| COc1ccc(S(=O)(=O)N2CCc3ccccc32)cc1C(=O)Nc1cccnc1 | inactive: 20% |
| CC(=O)NC(c1cccc([N+](=O)[O-])c1)c1ccc2cccnc2c1O (stereo unspecified) | inactive: -2.61% |
| CC(C)NC(=S)N1CCC(Cc2ccccc2)CC1 | inactive: 30.1% |
| COc1ccc(CC(NC(C)=O)C(=O)NC2CCN(S(=O)(=O)c3ccc(NC(C)=O)cc3)CC2)cc1 (stereo unspecified) | inactive: -2.17% |
| N#Cc1cccc(NC(=O)CNC(=O)Cc2ccccc2)c1 | inactive: 19.8% |
| O=C(COc1ccccc1)NS(=O)(=O)c1ccccc1 | inactive: 8.44% |
| Cc1cccc(C(=O)NCc2nnc(SCC(=O)NC3CCCC3)n2C)c1 | inactive: -17% |
| Cc1ccc(F)c(S(=O)(=O)NC(=O)C2(C)CCN2C(=O)CC2CCCCC2)c1 (stereo unspecified) | inactive: -13.5% |
| CSc1nsc(SCC(=O)Nc2ccc(OC(C)=O)cc2)n1 | inactive: 5.08% |
| O=C(Nc1ccc([N+](=O)[O-])cc1)C1(c2ccccc2)CCOCC1 | inactive: 16.9% |
| c1ccc(Cc2noc(CN3CCCN(C4Cc5ccccc5C4)CC3)n2)cc1 | inactive: 9.48% |
| O=[N+]([O-])c1ccccc1S(=O)(=O)NC1CCCCCCC1 | inactive: 26.5% |
| CC1CCN(C(=S)c2ccc(N(C)C)cc2)CC1 | inactive: 4.62% |
| COC(=O)CCNc1n[nH]c(=O)[nH]c1=O | inactive: -18.9% |
| Brc1ccc(-c2cn3ccccc3n2)cc1 | inactive: -5.21% |
| CC1(C)CC(=O)C2=C(C1)NC1=C(C(=O)c3ccccc31)C2c1cc([N+](=O)[O-])ccc1O (stereo unspecified) | inactive: 15.8% |
| CN(CCCCCC(=O)/C=N/O)Cc1ccccc1 | inactive: 14.5% |
